The whole screen tested about 280,000 compounds, of which about 540 (0.19%) were called active. The inconclusive results got no clear call from the source; some entries with a clear call stand among them for comparison. Calls come from the whole dose curve; as a rule, active = well fitted activation curve with a large enough effect; inconclusive = small, poorly fitted or top-dose-only effect; inactive = flat fitted curve, though single readings scatter. A potency beside an inconclusive call is a rough fit, not a confirmed value.
Test: Quantitative High-Throughput Screen for Regulators of Epigenetic Control; note: nearly all actives have a fitted effect of over 60% in size
Details: murine LDR cells, GFP reporter derepression, 30 h; series mostly up to 53.9 µM
Outline: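 In this reporter-derepression format, murine cells bearing a silenced integrated CMV-GFP locus incubate with test compound (30 h, 37 C), then are washed and imaged; fluorescent objects of 20–120 um count as induced cells.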
Potency is the fitted concentration of half-maximal effect; tags give direction and shape of the fitted curve.

SMILES | Potency
COc1ccc(NCc2cc3cc4c(cc3n(CC(=O)Nc3cccc(F)c3)c2=O)OCO4)cc1 | inactive
CCCCn1c(O)c(/C=C2\C=NN=C2c2ccccc2)sc1=S | inconclusive: 25.1 µM [activator, single point]
COc1ccc2nc(NC(=O)c3nc(S(=O)(=O)Cc4ccccc4F)ncc3Cl)sc2c1 | inconclusive: 5.62 µM [activator, single point]
O=C(COC(=O)C1CCN(C(=O)c2ccc(Cl)cc2)CC1)c1ccco1 | inconclusive: 6.31 µM [activator, single point]
COc1ccc(OC)c(/C=C/C(=O)N2C(=O)c3cccc(N)c3C2=O)c1 | inconclusive: 25.1 µM [activator, single point]
CCn1c(=O)cc(OCC(=O)N(C)c2cc(Cl)ccc2C)c2ccccc21 | inactive
CCOC(=O)NC(=O)/C(C#N)=N\Nc1ccc(Cl)cc1 | inactive
O=C1C2C(c3cccc(/C=C/c4ccccc4)c3)CC=CC2C(c2ccc3ccccc3c2)N1Cc1ccccc1 (stereo unspecified) | inactive
O=C(CSCc1ccccc1)N/N=C/c1cc2c(cc1Br)OCO2 | inactive
COc1cc(/C=N\NC(=O)c2nonc2N)c(OC)cc1Br | inconclusive: 35.5 µM [activator, single point]
COc1cc(OC)c2c(-c3ccccc3)cc(=O)oc2c1C(CCN1CCCCC1)c1ccc2c(c1)OCO2 (stereo unspecified) | inactive
Cc1ccc(C)c(/C=N/n2cc(-c3ccccc3)[nH]c2=S)c1 | inconclusive: 25.1 µM [activator, single point]
Cc1ccc(NS(=O)(=O)c2cc([N+](=O)[O-])ccc2N/N=C/c2sc(N3CCOCC3)nc2-c2ccccc2)c(C)c1 | active: 31.6 µM
COc1ccc(Cl)cc1NC(=O)c1c(NCc2cccnc2)sc2c1CCC(C)C2 (stereo unspecified) | inconclusive: 3.55 µM [activator, single point]
CCN1CCN(C(c2ccc(SC)cc2)c2c(O)cc(C)n(CCOC)c2=O)CC1 (stereo unspecified) | inconclusive: 1.12 µM [activator, partial curve, poor fit]
O=S(=O)(c1cc(-c2nc3ccccc3s2)ccc1Cl)N1CCOCC1 | inconclusive: 25.1 µM [activator, single point]
CCCCC(=O)Nc1sc2c(c1C(=O)OCC)CCC(C=O)=C2Cl | active: 11.2 µM
COc1ccc(CCNC(=O)C2CC(=O)N(c3ccc(C(C)(C)C)cc3)C2)cc1OC (stereo unspecified) | inconclusive: 28.2 µM [activator, single point]
Cn1c(O)c(N=NC(=S)Nc2ccccc2F)c2cc(S(=O)(=O)N3CCOCC3)ccc21 | inconclusive: 35.5 µM [activator, single point]
CCOC(=O)N1CCN(Cc2ccc(O)c3ncccc23)CC1 | active: 3.98 µM
CCS(=O)(=O)c1ncc(Cl)c(C(=O)NCc2ccc(OC)cc2)n1 | inconclusive: 5.62 µM [activator, single point]
NS(=O)(=O)c1ccc(CCNCc2cc(Br)ccc2OCc2ccccc2F)cc1 | inactive
CCN(CC)C(=S)SCC(=O)c1ccc(F)cc1 | inconclusive: 22.4 µM [activator, single point]
O=C(CSCc1cnn(-c2ccccc2)c1-n1cccc1)NCc1cccc(Cl)c1 | inconclusive: 35.5 µM [activator, single point]

SMILES | Potency
CC(C)C[C@H](NC(=O)c1[nH]cnc1C(=O)N[C@@H](Cc1ccccc1)C(=O)OC(C)(C)C)C(=O)OC(C)(C)C | inconclusive: 14.1 µM [activator, single point]
Cc1cc2oc(C(=O)Nc3cccc(-c4nc5ccccc5o4)c3)c(C)c2cc1C | inconclusive: 25.1 µM [activator, single point]
C[C@@H]1C(=O)O[C@H]2[C@H]1CC[C@@]1(C)C(=O)C=C[C@@](C)(O)[C@H]21 | inconclusive: 14.1 µM [activator, single point]
C=CCNC(=S)N/N=C(\C)c1cccc(OC)c1 | inconclusive: 31.6 µM [activator, single point]
O=C(Nc1ccn(Cc2ccc(Cl)cc2)n1)c1ccc2c(c1)OCO2 | inactive
O=C(Nc1nc2ccc(F)cc2s1)c1nc(S(=O)(=O)Cc2ccccc2F)ncc1Cl | inconclusive: 6.31 µM [activator, single point]
C[n+]1cc2c3c(ccc2c2ccc4cc5c(cc4c21)OCO5)OCO3 | inconclusive: 2.51 µM [activator, single point]
O=C(Nc1ccccc1C(=O)NC(Cc1ccccc1)C(=O)NC1CCCCCC1)c1ccccc1 (stereo unspecified) | inconclusive: 15.8 µM [activator, single point]
Cc1ccc(NC(=O)Nc2ccccc2CC[N+](=O)[O-])cc1 | inactive
Oc1[nH]c2ccc(Br)cc2c1N=NC(=S)NCC1CCCO1 (stereo unspecified) | inconclusive: 15.8 µM [activator, single point]
CN1CCN(Cc2cc(COCc3ccccc3)c3cccnc3c2O)CC1 | active: 3.55 µM
CCOc1ccc(NC(=O)/C(C#N)=C\c2ccc(-c3ccc(Cl)cc3)o2)cc1 | inconclusive: 4.47 µM [activator, full curve]
CCOCCCn1cc(C(=O)c2cc(Br)ccc2O)cc(C#N)c1=O | inactive
COc1ccc(NC(=O)NC2COc3ccccc3C2)cc1Cl (stereo unspecified) | inactive
CC(C)c1cnc2c(c1SCC(=O)NCc1ccccc1Cl)c(=O)n(C)c(=O)n2C | inactive
Cc1cc2c(n1-c1ccc(C(=O)NCc3ccccc3Cl)cc1)CCCC2 | inconclusive: 35.5 µM [activator, single point]
Cc1cccc(CCNC(=O)c2cc3c(=O)n(C)c4ccccc4c3n2C)c1 | inactive
O=c1c2ccccc2c(C=Nc2cccc(O)c2)c(O)n1-c1ccc2c(c1)OCO2 | inconclusive: 31.6 µM [activator, single point]
Cc1ccc(-c2cn3c(n2)sc2cc(C(=O)NCCCc4ccccc4)ccc23)c(C)c1 | inactive
COc1ccc([C@H]2CC(=O)c3c(O)cc(O)cc3O2)cc1O | inactive
O=C(Nc1nc2ccc(F)cc2s1)C1=NN(c2ccccc2)C(=O)CC1 | inconclusive: 14.1 µM [activator, single point]
O=C(N/N=C/C(Cl)=C/c1ccccc1)c1ccncc1 | inconclusive: 28.2 µM [activator, single point]
Cc1cc(C)c2nc3nc(C)c(C)cc3c(N)c2c1 | inconclusive: 35.5 µM [activator, single point]
COc1ccc(CNC(=O)CCc2c(C)c3cc4c(C)c(C)oc4cc3oc2=O)cc1OC | inactive

SMILES | Potency
Cc1ccc(/C=N/n2cc(-c3ccccc3)[nH]c2=S)s1 | inconclusive: 35.5 µM [activator, single point]
Cc1cc(NC(=O)CSc2nnc(-c3ccccc3)n2Cc2ccco2)no1 | inactive
CC1CCc2nc(N)c(C#N)c(-c3cccn3C)c2C1 (stereo unspecified) | inconclusive: 35.5 µM [activator, single point]
CCCC[C@@H]1C[C@H]1[C@@H](NC(=O)c1ccco1)c1ccc(Cl)cc1 | inconclusive: 17.8 µM [activator, partial curve, poor fit]
O=C1/C(=C/c2ccncc2)SC(=S)N1Cc1ccccc1 | active: 15.8 µM
O=C1c2ccccc2C(=O)C12OC2c1ccc(Cl)cc1 (stereo unspecified) | inconclusive: 35.5 µM [activator, single point]
O=C(COc1c(Br)cc(Br)c2cccnc12)N1CCc2ccccc2C1 | inactive
CSc1ccc(C2c3c(oc4ccc(F)cc4c3=O)C(=O)N2c2ccc(C)cn2)cc1 (stereo unspecified) | inconclusive: 5.62 µM [activator, full curve]
COc1cc(C2NC(=O)N(C)C3=C2C(=O)N(c2ccccc2)C3)ccc1O (stereo unspecified) | inconclusive: 5.62 µM [activator, single point]
NC(=O)COC(=O)c1ccc(Cl)c(S(=O)(=O)N2CCN(c3ccc(F)cc3)CC2)c1 | inconclusive: 35.5 µM [activator, single point]
CNC(=S)N/N=C(\C)c1ccc(C(C)(C)C)cc1 | inconclusive: 31.6 µM [activator, single point]
CN1CC=C2C(C#N)=C(N)C(C#N)(C#N)C(Cc3ccccc3)C2C1 (stereo unspecified) | inactive
COc1cccc(/C=C(\C#N)c2nc3ccc(C)cc3[nH]2)c1 | inconclusive: 31.6 µM [activator, single point]
Cc1cc(NC(=O)/C(C#N)=C/c2ccc(-c3cccc(C(F)(F)F)c3)o2)n(-c2ccccc2)n1 | inconclusive: 31.6 µM [activator, single point]
COc1ccc(N2CCN(C(=O)c3cc4c(=O)n(Cc5cccs5)ccc4nc3C)CC2)cc1 | inconclusive: 25.1 µM [activator, single point]
Cc1cc(=O)[nH]c(N/N=C/c2ccc(C)o2)n1 | inactive
Cc1cc(-c2cccs2)c(C#N)c(=S)[nH]1 | inactive
COc1ccc(C2=NN(C(=S)Nc3ccccc3)C(c3ccccc3)C2)cc1 (stereo unspecified) | inactive
CCOc1ccc2cc(-c3nnc(Nc4ccccc4F)s3)c(=O)oc2c1 | active: 3.55 µM
COc1ccccc1NS(=O)(=O)c1ccc(C)c(NC(=O)NCCCl)c1 | inactive
COc1ccc(S(=O)(=O)Nc2cc(-c3cn4cccc(C)c4n3)ccc2C)cc1C | inconclusive: 11.2 µM [activator, partial curve, poor fit]
COc1ccccc1Oc1nc2c(C)cccn2c(=O)c1/C=C(\C#N)c1nc2ccccc2[nH]1 | active: 12.6 µM
CCCn1c(O)c(/C=C2\C=NN=C2c2ccccc2)sc1=S | inconclusive: 20 µM [activator, single point]
